In PubChem BioAssay (NCI):
Several values for one entry are separate records, joined by “and”; a condition that tells them apart may be missing. Equal entries are not always repeated.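 Tested at 5 concentrations; 48 h exposure; 96-well plates; endpoints linearly interpolated, else capped at highest concentration. Here, GI50 denotes the concentration required for 50% inhibition of growth. At the TGI there is no net growth.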

Test system: NCI-H322M lung
Experiment: NCI anticancer screen, dose series, 48 h

Row | SMILES | GI50 [µM] | TGI
1 | O=C1c2cccc3cccc(c23)C(=O)N1CCCCCN1CCN(CCN=c2cc3n(-c4ccc(Cl)cc4)c4ccccc4nc-3cc2Nc2ccc(Cl)cc2)CC1 | 39.6 | > 50 µM
2 | C/C(=C1\N=C(c2ccccc2)OC1=O)c1ccccc1 | – | > 100 µM
3 | COC(=O)C(C(=O)C(=O)Nc1c(C)cccc1C(C)(C)C)c1nc2ccc(Cl)cc2[nH]c1=O (stereo not drawn) | – | > 100 µM
4 | Cc1cc2c(c(C(=O)O)c1C)-c1cccc(Cl)c1C2=O | – | > 100 µM
5 | NC(=O)[C@H](Cc1ccc(O)cc1)Nc1c(O)c2c(c(O)c1Cl)C(=O)C=CC2=O | – | > 10 µM
6 | CC(=O)n1[nH]c(=O)n(-c2ccc(Cl)cc2)c1=O | – | > 100 µM
7 | COc1cc2c(/C=C3\C(=O)Nc4ccccc43)c[nH]c2cc1C | 1.45 | 12.8 µM
8 | O=[N+]([O-])c1ccc(-n2nc3ccc4nonc4c3n2)cc1 | – | > 100 µM
9 | OCC(O)C(O)C(O)C(/C=N\Nc1ncnc2c(Br)cc(Br)cc12)=N/Nc1ncnc2c(Br)cc(Br)cc12 (stereo not drawn) | – | 33.6 µM and > 100 µM
10 | CCOP(=O)(/C=C/n1cc(C)c(=O)[nH]c1=O)OCC | – | > 100 µM
11 | COc1cccc2c1C(=O)c1c(O)c3c(c(O)c1C2=O)C[C@@](O)(C(C)=O)CC3OC1CC(OC2CC(N)C(O)C(C)O2)C(O)C(C)O1 (stereo partly drawn) | – | > 100 µM
12 | COc1cc(/C=N/NC(=O)c2cnn3c2NC(c2ccccc2)C3)ccc1OC1CCCC1 (stereo not drawn) | 0.821 | 10.4 µM
13 | Cn1c(COC(=O)NCCc2ccccn2)nc2c(N3CCOCC3)nc(Cl)nc21 | 10.5 | 22.4 µM
14 | O=C1NC(O)n2c(=O)[nH]c(=O)n21 (stereo not drawn) | – | > 100 µM
15 | Cc1cccc(C2NC(=O)c3ccccc3N2)c1 (stereo not drawn) | – | > 100 µM
16 | O=C1NC(=NCCc2ccc(Cl)cc2)S/C1=C\c1ccc2ncccc2c1 | > 25 | > 25 µM
17 | COC1(OC)C2(Cl)C3=CCCC=C3C1(Cl)C(Cl)=C2Cl | – | > 100 µM
18 | C[C@H]1S[C@@H](c2ccc(Cl)cc2Cl)N(NC(=O)c2ccncc2)C1=O | – | > 100 µM
19 | COC1/C=C/C(C)C(O)CC(O)/C=C/C(C)C(C(C)C(OC)C(C)CCC(=O)C(C)C(C/C=C/N(C)C=O)OC)OC(=O)/C=C/C=C(\C)CC(OC)CC2=CC(=O)O[C@@H](C(C)C(OC)C1)[C@H]2O (stereo partly drawn) | – | 0.533 µM
20 | O=P1(N(CCCl)CCCl)Oc2ccc(Cl)cc2C(C(Cl)(Cl)Cl)c2cc(Cl)ccc2O1 (stereo not drawn) | – | > 100 µM
21 | C[C@@H]1C[C@@H]([C@H](O)CC2CC(=O)NC(=O)C2)C(=O)[C@@H](C)C1 | 0.222 | 4.92 µM and 1.69 µM
22 | COC(=O)C1C=CCC2CCCCC21N1CCCC1 (stereo not drawn) | – | > 100 µM
23 | C=CCC(O[Si](C)(C)C(C)(C)C)c1cc(O[Si](C)(C)C(C)(C)C)ccc1OC (stereo not drawn) | – | > 100 µM

Row | SMILES | GI50 [µM] | TGI
24 | O=c1c(Cc2ccccc2)c(O)cc2n1CCC2 | – | > 100 µM
25 | CC(=O)Nc1ccc(C2CC(c3ccc([N+](=O)[O-])cc3)=Nc3ccccc3S2)cc1 (stereo not drawn) | – | > 100 µM
26 | O=C1Nc2ccccc2/C1=C\c1c(Cl)n(-c2ccccc2)c2ccccc12 | – | 13.2 µM
27 | CC(C)C[C@@H](N)[C@@H](O)C(=O)N[C@H](C(=O)N[C@H](C(=O)N[C@@H](CC(=O)O)C(=O)O)C(C)C)C(C)C | > 20 | > 20 µM
28 | CC1OC(OC2C(O[C@H]3CC[C@@]4(C)C(=CC[C@H]5[C@@H]6C[C@@H]7O[C@]8(CC[C@@H](C)CO8)[C@@H](C)[C@@H]7[C@@]6(C)CC[C@@H]54)C3)OC(CO)C(O)C2OC2OC(CO)C(O)C(O)C2O)C(O)C(O)C1O (stereo partly drawn) | – | 3.3 µM
29 | COc1ccc2[nH]c(C(=O)N3CCN(C(=O)OCc4ccc5c(Cl)cc(Cl)c(O)c5n4)CC3)cc2c1 | 1.7 | 3.9 µM
30 | O=C(Nc1n[nH]c2cc(-c3cc(F)ccc3F)ccc12)C1CC1 | > 25 | > 25 µM
31 | O=C(CC1=Nc2nnc(CCCCCCCc3nnc4n3C(=O)C(CC(=O)c3ccc5ccccc5c3)=N4)n2C1=O)c1ccc2ccccc2c1 | – | > 100 µM
32 | COc1cc2c(cc1O)C1Cc3ccc(OC)c(O)c3C[N+]1(C)CC2 (stereo not drawn) | – | > 100 µM
33 | C[n+]1cccc2ccc3cccnc3c21 | – | > 100 µM
34 | Cc1cccc(N2C(=O)/C(=C/C(Cl)=C/c3ccc([N+](=O)[O-])cc3)SC2=S)c1C | 5.04 | > 100 µM
35 | CCc1nc(N)c2nc(-c3cccs3)oc2n1 | – | > 100 µM
36 | COc1c2ccoc2nc2c(OC)c(OCC(O)C(C)(C)O)ccc12 (stereo not drawn) | – | > 100 µM
37 | CCOc1ccc2nc(NC(=O)C(=O)C(C(=O)c3ccccc3F)C3OC(=O)c4ccccc43)sc2c1 (stereo not drawn) | – | 77 µM
38 | CC(O)c1nc(C#N)c(N)o1 (stereo not drawn) | – | > 100 µM
39 | CCN1CC2(C)CCC(OC)C34C5CC6CCC(O)(C5C(=O)O6)C(C(O)C23)C14 (stereo not drawn) | – | > 100 µM
40 | Cc1cn(CCCCCCOC(=O)NC(CCCNC(N)=O)C(=O)O)c(=O)[nH]c1=O (stereo not drawn) | – | > 100 µM
41 | COC1=CC(c2ccc[nH]2)=N/C1=C\c1[nH]c(C)c(C(=O)CCCCCCCCC(=O)O[C@H]2CC[C@H]3C4CCc5cc(O)ccc5C4CC[C@]23C)c1C (stereo partly drawn) | 2.52 | > 50 µM
42 | O=C(Nc1sc2c(c1C(=O)O)CCCC2)c1ccco1 | > 50 | > 50 µM
43 | Cn1c(=O)oc2cc(C3CCC(=O)N3Cc3csc(-c4ccccc4)n3)ccc21 (stereo not drawn) | – | > 100 µM
44 | CN1CCCC2[C@@H]3CCC4c5nonc5CC[C@]4(C)C3CC[C@@]21C (stereo partly drawn) | – | > 100 µM
45 | CC1(C)CC(C)(C)c2cc(NC(=S)Nc3ccc([N+](=O)[O-])cc3)ccc2S1 | 9.73 | 24.9 µM
